The full ranking holds about 110,000 compounds; the median of “z-score” is about -0.1, and the highest 2% start at about 2. This is one part of the list. The source made the active and inactive calls.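 How the source made its calls: active means z-score in the third read window above 3 or below -3; inactive means the rest.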

This assay addresses Metabotropic glutamate receptor 8 (Rattus norvegicus) (UniProt P70579). As to the kind of experiment: rat mGluR8 modulators via GIRK flux, primary screen, cell-based, thallium flux, HTS (AID 488969). The following applies: HEK293 rat mGluR8, GIRK (G protein-gated inwardly rectifying potassium channel) thallium flux, FluoZin2; at 10 µM; stronger effect = higher value.
Sequence of UniProt P70579 (P70579 whole entry, looked up): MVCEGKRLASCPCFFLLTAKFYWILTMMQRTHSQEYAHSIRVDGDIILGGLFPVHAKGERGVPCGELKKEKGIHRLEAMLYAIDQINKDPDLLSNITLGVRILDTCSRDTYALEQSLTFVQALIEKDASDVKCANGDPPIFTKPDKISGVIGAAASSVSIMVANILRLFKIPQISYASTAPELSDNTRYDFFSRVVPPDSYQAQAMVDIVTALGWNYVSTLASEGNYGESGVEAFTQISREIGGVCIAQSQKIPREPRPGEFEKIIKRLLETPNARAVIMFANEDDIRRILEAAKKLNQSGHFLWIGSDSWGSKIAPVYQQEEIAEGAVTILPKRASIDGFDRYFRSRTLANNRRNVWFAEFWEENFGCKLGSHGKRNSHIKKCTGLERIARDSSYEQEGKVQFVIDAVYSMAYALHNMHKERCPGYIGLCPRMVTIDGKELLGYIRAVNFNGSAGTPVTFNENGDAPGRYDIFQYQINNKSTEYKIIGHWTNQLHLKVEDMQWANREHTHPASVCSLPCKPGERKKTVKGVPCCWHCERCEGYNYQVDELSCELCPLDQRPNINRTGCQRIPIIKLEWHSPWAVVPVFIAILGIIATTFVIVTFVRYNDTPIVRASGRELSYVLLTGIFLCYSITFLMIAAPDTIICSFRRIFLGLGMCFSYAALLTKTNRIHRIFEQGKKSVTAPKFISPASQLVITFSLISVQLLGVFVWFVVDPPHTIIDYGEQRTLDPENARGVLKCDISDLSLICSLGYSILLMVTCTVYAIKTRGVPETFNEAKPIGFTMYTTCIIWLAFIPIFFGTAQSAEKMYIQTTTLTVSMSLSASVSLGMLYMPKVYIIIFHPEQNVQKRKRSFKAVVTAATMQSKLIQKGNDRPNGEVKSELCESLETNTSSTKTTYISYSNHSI
Consider `COc1ccc(NC(c2ccccc2)P(=O)(Oc2ccccc2)Oc2ccccc2)cc1` (stereo not given), for which the z-score is -0.0896. In the case of `Cc1[nH]c2ccccc2c1CCN`, the z-score is -0.894. For `COC(=O)c1ccccc1OP1(=O)COc2ccccc2OC1` the value was -0.147; for `O=P(Nc1ccccc1)(Nc1ccccc1)Oc1ccc(Cl)cc1`, -0.0907. The value for `CC(=O)NC(Cc1ccc(N(CCCl)CCCl)cc1)C(=O)O` (stereo not given) was 0.38; that for `CCC12C=CCN3CCC4(c5cc(Br)c(OC)cc5N(C)C4C(O)(C(=O)OC)C1OC(C)=O)C32` (stereo not given) was -0.463. The value for `CC1=C(C(=O)Nc2ccccc2)SCCO1` was 1.02. Turning to `CC(=O)C1C(=O)NC23CCCCC2C1c1ccccc1O3` (stereo not given), the z-score was determined as 0.359. On to `Cc1ccc(N2C(=O)NC(=O)C3(Cc4ccccc4N4CCCC43)C2=O)cc1` (stereo not given), for which the z-score was -0.319.

For `CCOc1ccc(NC(=O)c2c(C)nn(Cc3ccccc3)c2Cl)cc1`, the z-score was 0.114. For `Cc1cccc(-n2c(O)c(/C=C/C=Nc3ccccc3)c(=O)[nH]c2=O)c1` the value was -0.724; for `C=CCN(c1ccc(C(=O)N(CC)CC)cc1)S(C)(=O)=O`, 0.139; for `CC1CN(c2ccc([N+](=O)[O-])c3cccnc23)CC(C)N1` (stereo not given), 0.0267.

Turning to `CCn1c(O)c(C=Nc2ccc(S(N)(=O)=O)cc2)c(=O)[nH]c1=S`, the z-score is -0.0715. The value for `Cn1c(O)c(C=NCCOc2ccc(Cl)cc2)c(=O)n(C)c1=O` was 0.0723. As for `CCN1CCN(C(=O)Cc2coc3ccc4ccccc4c23)CC1`, the z-score is -0.146. Molecule `Nc1ccccc1C(=O)OC1CSC1` showed a z-score of 0.121. The value for `CC(C(N)=O)N1CC(c2ccc(Cl)cc2)CC1=O` (stereo not given) was -0.161; that for `CCOC(=O)c1c(-n2c(C)cc(C=C3C(=O)NC(=S)NC3=O)c2C)sc2c1CCCC2` was -0.312.

The molecule `O=c1c2ccccc2nc(-c2ccco2)n1-c1ccccn1` registered a z-score of -0.0713.

In turn, `Cc1ccc(N2C(=O)/C(=C/c3ccc(CN(CCC#N)S(C)(=O)=O)o3)C(=O)NC2=S)cc1C` had a z-score of -0.237.

Turning to `COc1cccc(N2C(=O)CC(=O)NC2=O)c1`, the z-score turned out to be 0.152. For `CC(=NCc1cccnc1)c1c(O)n(Cc2ccccc2)c(=O)[nH]c1=O` the value was -0.11; for `COC(=O)OCC12CCC(O1)C1(C)C(=O)OCC21` (stereo not given), -0.227; for `CN1CCN(c2ccc([N+](=O)[O-])c(NCc3ccco3)c2)CC1`, 0.0767.

With `O=C(COc1ccc(Cl)cc1)N1CCN(C/C=C/c2ccccc2)CC1`, the z-score is -0.0408.

`NP(=O)(OCC(F)(F)F)Oc1ccccc1` (stereo not given): the z-score is -0.13.

Molecule `CCOC(=O)C(O)(c1ccc(NC(=O)c2ccco2)c(OC)c1)C(F)(F)F` (stereo not given) registered a z-score of -0.0452.

For `Cc1nn(Cc2ccccc2)c(C)c1C=C1C(=O)NC(=O)NC1=O`, the z-score amounted to 2.1. Consider `COc1ccc(OCC(=O)Nc2ccc(Cl)cc2C(=O)c2ccccc2)cc1`, for which the z-score is -0.0614.

Take `Cc1cccc(C2=NCC(=O)N(CC(=O)NCc3ccco3)c3sc4c(c32)CCCC4)c1`: the z-score was -0.553. Consider `Cc1ccc2nc(N3CCC(C(=O)N4CCC5(CC4)OCCO5)CC3)sc2c1`, for which the z-score was active: 4.28.

Take `CCCCn1c(O)c(C(CC)=Nc2ccc(OCC)cc2)c(=O)[nH]c1=O`: the z-score is -1.35. For `C/C(=N\N1CCCCCC1)c1c(O)n(-c2ccc(C)cc2)c(=O)[nH]c1=O` the value was -0.275; for `CCCCCCC(N)CC(=O)O` (stereo not given), 0.181. For `CCc1ccc(CNCCc2ccccc2F)cc1` the value was 1.1. The value for `C=CCOC(=O)C1=C(C)OC(N)=C(C(=O)OCC)C12C(=O)N(CC(N)=O)c1ccccc12` (stereo not given) was -0.605; that for `CCOP(=O)(C(NC(=O)c1ccccc1Cl)=C(Cl)Cl)c1ccccc1` (stereo not given) was -0.0996. On to `COc1ccc2c(c1)c(C(=O)O)c(C)n2CC(C)C`, for which the z-score was -0.367. The value for `COc1ccc(CCN(C)Cc2ccncc2)cc1OC` was -0.229; that for `c1cncc(CNC2=NCCC2)c1` was -0.0881; that for `CCCCC(=O)N/N=C/c1c(O)n(CC)c(=S)n(CC)c1=O` was 1.15. For `CC(C)CC12CN3CCN(CC(C3)C1O)C2` (stereo not given) the value was -0.327; for `Fc1ccc(Cn2nnnc2C(c2ccc(F)cc2)N2CC=C(c3ccc(F)cc3)CC2)cc1` (stereo not given), -0.172. The value for `CC(C)n1cc(C(=O)N(CC(=O)NC(C)(C)C)Cc2ccccc2)cn1` was 0.258; that for `COc1ccc(/C=C2/C(=O)NC(=O)N(c3ccc(C)c(C)c3)C2=O)cc1CN1C(=O)c2ccccc2C1=O` was -0.202; that for `Cc1oc2ccc(OC(=O)N(C)C)cc2c1C(=O)OC(C)C` was -0.541. `Cc1cc(C)c(S(=O)(=O)NCC2CCC(C(=O)N3CCC4(CC3)OCCO4)CC2)c(C)c1` (stereo not given) had a z-score of -0.111. In the case of `COc1cc2c(cc1OC)C(C(=O)N(C)C1CCCCC1)C1CCCCN1C2=O` (stereo not given), the z-score is -0.133. Consider `C=CCn1c(O)c(C(C)=NCCCO)c(=O)[nH]c1=O`, for which the z-score was determined as 0.182.

For the molecule `CCOC(=O)c1c(NC(=O)c2c(N)n(CCCOC)c3nc4ccccc4nc23)sc2c1CCCC2`, the z-score is -0.769. As to `Cc1ccc(OP(=O)(NCc2ccccc2)Oc2ccc(C)cc2)cc1`, the z-score was -0.00664. The value for `CC(C)=CCC12CN3CCN(CC(C3)C1=O)C2` was 0.0294; that for `Cc1ccc(N2C(=O)NC(=O)/C(=C\C=C\c3ccco3)C2=O)cc1C` was -0.569; that for `CC(C)CCCn1c(O)c(/C=C2/C=CC=N2)c(=O)[nH]c1=O` was -0.41. For `CC/C(=N\Nc1ccccc1)c1c(O)n(C)c(=O)n(C)c1=O` the value was -0.0457; for `Clc1ccc(C(c2ccccc2)c2ncc[nH]2)cc1` (stereo not given), 0.0215. The value for `CCCCN1C(=O)NC(=O)C2(Cc3ccccc3N3CCOCC32)C1=O` (stereo not given) was 0.172.

For the molecule `CN(C)P1(N(C)C)=Nc2c(c(N)nn2C)C(c2ccccc2)=N1`, the z-score stood at 1.2. The value for `CCN(CC)c1ccc(/C=C2\C(=O)NC(=O)N(Cc3ccco3)C2=O)cc1` was 0.131; that for `O=Cc1cn(Cc2ccc(F)cc2Cl)c2ccccc12` was -0.0777. Turning to `O=C1c2ccccc2C(=O)N1Cc1nc2ccccc2c(=O)n1-c1ccc(Br)cn1`, the z-score was determined as 0.157. For `Cc1ccc(S(=O)(=O)N2CCCCC2)cc1NC(=O)CN1CC=C(c2ccccc2)CC1` the value was -0.105; for `Cc1c(N=Nc2c(O)n(C)c(=O)n(C)c2=O)c(=O)n(-c2ccccc2)n1C`, 0.279.

Turning to `CCOC(=O)c1c(C)c(P(=S)(N2CCOCC2)N2CCOCC2)n(C)c1C`, the z-score is -0.197. The value for `CC(=O)c1c(C)n(CCCOC(C)C)c2ccc(O)cc12` was -0.0672; that for `CCC1(CC)C(=O)NC(=Nc2cccc(C(F)(F)F)c2)NC1=O` was 0.126; that for `CC(=NCc1ccco1)c1c(O)n(-c2ccccc2)c(=O)[nH]c1=O` was -0.133.

Consider `C=CCn1c(O)c(C(CC)=NCCc2ccccc2)c(=O)[nH]c1=O`, for which the z-score was -0.31.

`Cc1cc(C)cc(N2C(=O)NC(=O)/C(=C\c3cccn3-c3ccccc3)C2=O)c1`: the z-score is -0.205.

(Values after PubChem BioAssay AID488969 (Vanderbilt High Throughput Screening Facility, 2010).)
